Assay results taken from the supplement of paper PMC3694890.
± gives the uncertainty stated by the source. Some of the results follow. A small y stands for phosphotyrosine.

molecular target: GRB2 (endogenous complexes from cell lysate), P62993; experiment: GRB2 complex binding differential signal (pY peptide minus Ala control peptide) (fluorescence intensity units); higher = stronger GRB2 complex binding; settings: MCF7
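Note: phosphopeptide probes on the chip at 1–4 µM, lysate proteins bound in 20 mM Tris pH 7.0 buffer with 140 mM NaCl, 1% Triton X-100 and 5% glycerol.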

Binder | GRB2 complex binding differential signal
yKWTAP [PTK6_351/A1] | 246 ± 1900
yVYEAA [BCAR1_222/A1] | 290 ± 1200
yINANI [PTPN11_304/A1] | 44200 ± 4600
yENPTG [PTK6_447/A1] | 16800 ± 940
yDVSRM [PLCG2_753/A1] | 80.6 ± 360
yLSHDH [PTK6_342/A1] | 302 ± 240
yIATQG [PTPN11_327/A1] | 1620 ± 390
yNQPDW [Q59GD8_238/A1] | -113 ± 250
yRFIYM [PTPN11_515/A1] | -175 ± 1800
yYDLYG [PTPN11_62/A1] | 369 ± 1800
yNMERD [PLCG2_743/A1] | -9200 ± 1600
yMVLEY [PTK7_872/A1] | -19.2 ± 360
yVAIAQ [PTPN6_509/A1] | 1610 ± 440
yQVPGP [BCAR1_128/A1] | 22000 ± 4000
yGNITY [PTPN6_536/A1] | 6120 ± 1800
ySAVSR [PVR_398/A1] | 8930 ± 1700
yVLCPS [AXL_866/A1] | 2640 ± 2100

Binder | GRB2 complex binding differential signal
yENLHT [PTPN6_564/A1] | 30400 ± 8500
yLVYQE [PSA2_98/A1] | -684 ± 2700
yVNGKT [PSA2_167/A1] | 38800 ± 4700
yVLSVR [PTK6_114/A1] | 1220 ± 950
yKNILP [PTPN11_279/A1] | 54700 ± 11000
ySRKEG [PTPN11_263/A1] | 1340 ± 520
yTQSGG [PSA2_121/A1] | 1680 ± 530
yENVGL [PTPN11_584/A1] | 54000 ± 5200
yQEPIP [PSA2_101/A1] | 4570 ± 780
ySVTNC [PTPN6_377/A1] | 401 ± 250
yGGEKF [PTPN11_66/A1] | 966 ± 280
yTNIKY [PTPN11_546/A1] | 41300 ± 5400
ySGMGP [PSA2_76/A1] | 1850 ± 380
yDLYGG [PTPN11_63/A1] | 217 ± 230
yPVTPE [PLCG2_733/A1] | 211 ± 560
yVDPSE [PLCG2_759/A1] | 4410 ± 490

same assay, conditions: MCF10A

Binder | GRB2 complex binding differential signal
yKWTAP [PTK6_351/A1] | 302 ± 300
yVYEAA [BCAR1_222/A1] | 711 ± 1600
yINANI [PTPN11_304/A1] | 25200 ± 4400
yENPTG [PTK6_447/A1] | 9710 ± 3000
yDVSRM [PLCG2_753/A1] | 787 ± 450
yLSHDH [PTK6_342/A1] | 422 ± 810
yIATQG [PTPN11_327/A1] | 1530 ± 210
yNQPDW [Q59GD8_238/A1] | 158 ± 220
yRFIYM [PTPN11_515/A1] | 287 ± 420
yYDLYG [PTPN11_62/A1] | 75.8 ± 280
yNMERD [PLCG2_743/A1] | -1850 ± 1600
yMVLEY [PTK7_872/A1] | 113 ± 130
yVAIAQ [PTPN6_509/A1] | 1470 ± 480
yQVPGP [BCAR1_128/A1] | 4630 ± 1700
yGNITY [PTPN6_536/A1] | 1790 ± 1800
ySAVSR [PVR_398/A1] | 3410 ± 1000
yVLCPS [AXL_866/A1] | 570 ± 230

Binder | GRB2 complex binding differential signal
yENLHT [PTPN6_564/A1] | 18700 ± 5400
yLVYQE [PSA2_98/A1] | 22.5 ± 150
yVNGKT [PSA2_167/A1] | 7160 ± 2100
yVLSVR [PTK6_114/A1] | 1310 ± 240
yKNILP [PTPN11_279/A1] | 49300 ± 8400
ySRKEG [PTPN11_263/A1] | 1830 ± 440
yTQSGG [PSA2_121/A1] | 2460 ± 400
yENVGL [PTPN11_584/A1] | 41600 ± 5600
yQEPIP [PSA2_101/A1] | 4020 ± 470
ySVTNC [PTPN6_377/A1] | 245 ± 230
yGGEKF [PTPN11_66/A1] | 505 ± 320
yTNIKY [PTPN11_546/A1] | 22700 ± 2500
ySGMGP [PSA2_76/A1] | 898 ± 340
yDLYGG [PTPN11_63/A1] | -75.1 ± 160
yPVTPE [PLCG2_733/A1] | 840 ± 540
yVDPSE [PLCG2_759/A1] | 2510 ± 710

same assay, conditions: MDA-MB-231

Binder | GRB2 complex binding differential signal
yKWTAP [PTK6_351/A1] | 591 ± 460
yVYEAA [BCAR1_222/A1] | 858 ± 470
yINANI [PTPN11_304/A1] | 8960 ± 2300
yENPTG [PTK6_447/A1] | 12300 ± 1100
yDVSRM [PLCG2_753/A1] | 368 ± 320
yLSHDH [PTK6_342/A1] | 654 ± 280
yIATQG [PTPN11_327/A1] | 619 ± 350
yNQPDW [Q59GD8_238/A1] | -28.9 ± 420
yRFIYM [PTPN11_515/A1] | 1100 ± 560
yYDLYG [PTPN11_62/A1] | 486 ± 310
yNMERD [PLCG2_743/A1] | -147 ± 310
yMVLEY [PTK7_872/A1] | 480 ± 370
yVAIAQ [PTPN6_509/A1] | 924 ± 410
yQVPGP [BCAR1_128/A1] | 1340 ± 480
yGNITY [PTPN6_536/A1] | 2710 ± 2900
ySAVSR [PVR_398/A1] | 2270 ± 390
yVLCPS [AXL_866/A1] | 604 ± 350

Binder | GRB2 complex binding differential signal
yENLHT [PTPN6_564/A1] | 19900 ± 3400
yLVYQE [PSA2_98/A1] | 506 ± 270
yVNGKT [PSA2_167/A1] | 12900 ± 1900
yVLSVR [PTK6_114/A1] | 1110 ± 540
yKNILP [PTPN11_279/A1] | 13000 ± 3200
ySRKEG [PTPN11_263/A1] | 363 ± 510
yTQSGG [PSA2_121/A1] | 1070 ± 500
yENVGL [PTPN11_584/A1] | 27900 ± 3400
yQEPIP [PSA2_101/A1] | 1430 ± 660
ySVTNC [PTPN6_377/A1] | 405 ± 260
yGGEKF [PTPN11_66/A1] | 509 ± 430
yTNIKY [PTPN11_546/A1] | 9610 ± 820
ySGMGP [PSA2_76/A1] | 732 ± 360
yDLYGG [PTPN11_63/A1] | 254 ± 300
yPVTPE [PLCG2_733/A1] | 462 ± 380
yVDPSE [PLCG2_759/A1] | 2310 ± 480

same assay, conditions: T47D

Binder | GRB2 complex binding differential signal
yKWTAP [PTK6_351/A1] | 133 ± 910
yVYEAA [BCAR1_222/A1] | 746 ± 2500
yINANI [PTPN11_304/A1] | 19100 ± 4400
yENPTG [PTK6_447/A1] | 19300 ± 4100
yDVSRM [PLCG2_753/A1] | 122 ± 830
yLSHDH [PTK6_342/A1] | 95.4 ± 880
yIATQG [PTPN11_327/A1] | 384 ± 940
yNQPDW [Q59GD8_238/A1] | 247 ± 1100
yRFIYM [PTPN11_515/A1] | 4340 ± 1500
yYDLYG [PTPN11_62/A1] | 752 ± 1500
yNMERD [PLCG2_743/A1] | -819 ± 2000
yMVLEY [PTK7_872/A1] | 1.84 ± 1100
yVAIAQ [PTPN6_509/A1] | 1250 ± 1200
yQVPGP [BCAR1_128/A1] | 2060 ± 1100
yGNITY [PTPN6_536/A1] | 12300 ± 6200
ySAVSR [PVR_398/A1] | 8220 ± 1900

Binder | GRB2 complex binding differential signal
yVLCPS [AXL_866/A1] | 465 ± 1100
yENLHT [PTPN6_564/A1] | 23500 ± 8300
yVNGKT [PSA2_167/A1] | 33300 ± 6500
yVLSVR [PTK6_114/A1] | 1050 ± 850
yKNILP [PTPN11_279/A1] | 34800 ± 12000
ySRKEG [PTPN11_263/A1] | 709 ± 1600
yTQSGG [PSA2_121/A1] | 1360 ± 1200
yENVGL [PTPN11_584/A1] | 39000 ± 12000
yQEPIP [PSA2_101/A1] | 1120 ± 1800
ySVTNC [PTPN6_377/A1] | 41.1 ± 2200
yGGEKF [PTPN11_66/A1] | 279 ± 980
yTNIKY [PTPN11_546/A1] | 41800 ± 14000
ySGMGP [PSA2_76/A1] | 295 ± 1000
yDLYGG [PTPN11_63/A1] | 7.15 ± 860
yPVTPE [PLCG2_733/A1] | 94.4 ± 950
yVDPSE [PLCG2_759/A1] | 640 ± 1000
